In the supplement of paper PMC11417369:
± gives the standard deviation of the averaged measurements. This is one part of the list.

Tested on: PfAP2-EXP AP2 domain (GST-tagged)
Assay: gcPBM binding intensity (ln(normalized median fluorescence intensity)); higher = stronger DNA binding
Method in brief: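 An Agilent 4 × 180k array of primer-extended double-stranded 36-bp intergenic genomic probes, with negative controls, was incubated for 1 h with GST-tagged P. falciparum DNA-binding domains expressed in E. coli. Alexa488 anti-GST antibody detected bound protein, scanned at 488 nm. Binding intensity is the highest Masliner-normalised natural-log median intensity across replicate spots of either probe orientation.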

“CAACATATGCATATGTGTACATATTTTATTTTCAAC [XGTACX_site2237]” and “ATATACTCATTAATAACACACAATATGATAACAAAT [CACACA_site5913]” are within error of each other in “gcPBM binding intensity (ln)” value: 8.43 ± 0.4 for the first, 8.84 ± 0.37 for the second.

“ACATACATATGTAAATGTACAAAATATCCATAGATT [XGTACX_site2782]” and “AATATATTTCATTTTTGTACACACAACGTTGGAGGG [XGTACX_site6461]” are within error of each other in “gcPBM binding intensity (ln)” value: 8.62 ± 0.52 for the first, 9.45 ± 0.57 for the second.

“CGAACAAACAAATAAACACACAAAAAAAAATATATA [CACACA_site1825]” and “ATACTTATGATAAATACACACTTGAAATTAAGGATT [CACACA_site4772]” are within error of each other in “gcPBM binding intensity (ln)” value: 8.65 ± 0.79 for the first, 8.45 ± 0.47 for the second.

ATAGAAGGCAACTTGGTGCACAAAAAAAAAAATAAT and “AATATAAAAAAAGAGGAGGGATGGTATACTTGTGGT [CACACA_negctrl_site986]” are within error of each other in “gcPBM binding intensity (ln)” value: 9.43 ± 0.11 for the first, 8.9 ± 0.51 for the second.

“AAAAAAAATACATACACACACACACCCACATATATA [CACACA_site3561]” and “AATGTGAAAAAAAAAAGTACAGACCTAATCAAAAAA [XGTACX_site2486]” are within error of each other in “gcPBM binding intensity (ln)” value: 8.75 ± 0.65 for the first, 8.67 ± 0.28 for the second.

“TTTTTTAAAAGATATATAATATGTATGAATATTCAA [XGTACX_negctrl_site380]” and “TTAAAGCTGACATATACACACATACATAAATTCATA [CACACA_site5377]” are within error of each other in “gcPBM binding intensity (ln)” value: 8.17 ± 0.47 for the first, 8.6 ± 0.39 for the second.

First: TATACATATATTATATGTACATATATATATAATATA [XGTACX_site2942]
Second: ATATATATATAATAAACACACAAATAGATATAACAT [CACACA_site3715]
The “gcPBM binding intensity (ln)” value of the first is lower: 8.29 ± 0.28 for the first, 9.5 ± 0.18 for the second.

Going from “GGACAAGTTTTTTACATAAATAAAAAAAATAAAAAA [XGTACX_negctrl_site125]” to “CCCCCCCACAGACACACACACATACATACCACATAT [CACACA_site2306]”, the “gcPBM binding intensity (ln)” value rises from 8.44 ± 0.42 to 10.3 ± 0.014.

Compared with “ATATTATAATTGAAGGTGCAAAATGTAATATAGATA [GTGCAC_site9661]”, “ATTCATTTTTTGGGGGGTACACCCTTTTAAACATTT [XGTACX_site4797]” is higher in “gcPBM binding intensity (ln)” value: 9.41 ± 0.028 for the first, 10.3 ± 0.48 for the second.

Compared with “ATTATTATTTAAAAAAGTACATTGAAGTTCATAATA [XGTACX_site3575]”, “TGAAATGATATATAAACACACATATATATATATATA [CACACA_site3511]” is higher in “gcPBM binding intensity (ln)” value: 8.44 ± 0.3 for the first, 10 ± 0.36 for the second.

“ATTTTTAATGTGATCACACATAAATATTATATATAT [CACACA_site5641]” and “GTATAAAAAAATATATGTACTTATTTACATATATAT [XGTACX_site4744]” are within error of each other in “gcPBM binding intensity (ln)” value: 8.48 ± 0.29 for the first, 8.24 ± 0.32 for the second.

“CTGGAGTTAAAAATGTGTACCTAAAAAATTTTGTTC [XGTACX_site5554]” and “ATTATTATATATAAAACACACAATTTTGTTTTCACA [CACACA_site3965]” are within error of each other in “gcPBM binding intensity (ln)” value: 8.52 ± 0.35 for the first, 8.29 ± 0.24 for the second.

“ACTATTTAAATGCAAAGTACTTTGATAATAAACAAT [XGTACX_site2608]” and “TAATATAACAAAAAAATAAAATAAAATAAAAAATAA [CACACA_negctrl_site109]” are within error of each other in “gcPBM binding intensity (ln)” value: 8.85 ± 0.44 for the first, 8.4 ± 0.41 for the second.

“ATATAATAATATTAAAGTACATGCATATATATTTAT [XGTACX_site7422]” and “ATTTTTTAAAAAAACATACACACAAAAAAAAAAAAA [CACACA_site3936]” are within error of each other in “gcPBM binding intensity (ln)” value: 8.71 ± 0.31 for the first, 8.38 ± 0.56 for the second.

“CATAATATCTCTTTGTGTACATATAGTTATTATTAT [XGTACX_site7688]” and “TATAAACATAAATATACACACAAACATATAGGTATT [CACACA_site6690]” are within error of each other in “gcPBM binding intensity (ln)” value: 8.69 ± 0.37 for the first, 8.57 ± 0.39 for the second.

“CCCCTTAATTTATTTTGTACATATAATTTTTTTTTT [XGTACX_site3270]” and “ATTAATCAATATAGGCGTACAAAAAAAATAAATTAT [XGTACX_site1513]” are within error of each other in “gcPBM binding intensity (ln)” value: 8.6 ± 0.42 for the first, 8.94 ± 0.54 for the second.

“AAAAAAAAAAAAAAAAAAAAAAATATATATATATTT [GTGCAC_negctrl_site502]” and “CTTGTATATAAACACACACACACTTTCTTTTTTTAA [CACACA_site8602]” are within error of each other in “gcPBM binding intensity (ln)” value: 8.99 ± 0.11 for the first, 8.6 ± 0.41 for the second.

“ACAAAAATAAGCAAATGTACATATGTATAATATATT [XGTACX_site2492]” and “GTATTTTTAAATGACACACACATATATAAATATGTA [CACACA_site6880]” are within error of each other in “gcPBM binding intensity (ln)” value: 8.71 ± 0.5 for the first, 8.38 ± 0.31 for the second.

Compared with “TCTTATTTTATAAATATAAATATATATATATATATA [GTGCAC_negctrl_site479]”, “ATATATTTTAAAGAAAGTACCCACCGTTTGAAGTCA [XGTACX_site2273]” is lower in “gcPBM binding intensity (ln)” value: 10.1 ± 0.4 for the first, 8.73 ± 0.41 for the second.

Going from “ATTAATATATAACGTGCACACACACCGTTACGTATG [CACACA_site8543]” to “TGTTATATATATTGACTTAATAAATAAATAAATATA [GTGCAC_negctrl_site590]”, the “gcPBM binding intensity (ln)” value falls from 9.12 ± 0.042 to 7.95 ± 0.43.

Compared with ATATATTTTATATGTGTGCACTATATATATATATAT, “TATTTTATAATTTACCGTACATTAATTGTATTATTA [XGTACX_site5722]” is lower in “gcPBM binding intensity (ln)” value: 10.3 ± 0.18 for the first, 8.55 ± 0.35 for the second.

“TTACAAAACACTTATACACACATATAAATATAAATA [CACACA_site7307]” and “CTCCTCATATAATTTTGTACATAAAAAATTACCATT [XGTACX_site3879]” are within error of each other in “gcPBM binding intensity (ln)” value: 8.48 ± 0.42 for the first, 8.72 ± 0.42 for the second.

“ATATTATGTGAAGAACGTACAAATTTTTACACTATA [XGTACX_site1485]” and “TTCTTTTCAGAAGGAAAGAATTATAACATATCATAA [XGTACX_negctrl_site548]” are within error of each other in “gcPBM binding intensity (ln)” value: 8.69 ± 0.43 for the first, 8.23 ± 0.45 for the second.

“TATTTTGCTCATCCATGTACACATAGATATATTTTA [XGTACX_site8244]” and “TTTCTAAATGTTTATATATATATATATATATAAATA [GTGCAC_negctrl_site397]” are within error of each other in “gcPBM binding intensity (ln)” value: 8.85 ± 0.44 for the first, 8.47 ± 0.11 for the second.

First: TAAAAGAAATAAGGTGCACACATATACATATATATA [CACACA_site8037]
Second: CTATAAATAACAGAAAGTACATATACATGGATATAT [XGTACX_site3317]
The “gcPBM binding intensity (ln)” value of the first is higher: 9.16 ± 0.085 for the first, 8.65 ± 0.38 for the second.

“AATATATCAAAAATTGGATAGTTTCTTATAAAAAAT [CACACA_negctrl_site39]” and “ATACATATATATATTCTACACACTTATAATATAATA [CACACA_site8782]” are within error of each other in “gcPBM binding intensity (ln)” value: 8.09 ± 0.44 for the first, 8.71 ± 0.44 for the second.

“GTAAAAGTTAAAAAAACATGCAAAATTTAAAAAAAA [TGCATGCA_site637]” and “ACTATATTTGCCCTTTTAATCAGAACAAAAAAAAAA [CACACA_negctrl_site1051]” are within error of each other in “gcPBM binding intensity (ln)” value: 8.83 ± 0.37 for the first, 8.62 ± 0.12 for the second.

“ATTATATTCCAAGTTTGTACATATATATAAAAGTAT [XGTACX_site1631]” and “AGTATAAAAATAAGCACACACACAAATATATATTTA [CACACA_site923]” are within error of each other in “gcPBM binding intensity (ln)” value: 8.54 ± 0.33 for the first, 8.86 ± 0.45 for the second.
